Some of the results follow.
Tested on: PfSIP2 AP2 domain 1 (GST-tagged)
Test: gcPBM binding intensity (ln(normalized median fluorescence intensity)); higher = stronger DNA binding
How it was run: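 DNA-binding domains from P. falciparum, fused to GST and produced in E. coli, were put on an Agilent 4 × 180k double-stranded probe array for 1 h in 1× PBS holding 1% milk, 0.2 mg/ml BSA, 0.5% salmon testes DNA and 0.03% Triton X-100. Probes were primer-extended, 36 bp long and drawn from intergenic genomic regions, with negative controls included. After Alexa488 anti-GST antibody detection and a 488 nm scan, binding intensity was set as the highest Masliner-normalised natural-log median intensity across replicate spots of either probe orientation.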

Sequence | gcPBM binding intensity (ln)
AAATAAATTAAAATAAATTAAATTAAATTAGCATTA [GTGCAC_negctrl_site531] | 6.61
TGTATGTTATGTATATGTACATATCTTTGTATTTAT [XGTACX_site6920] | 7.06
TAATATTTATAATAGTGTACACAATTATAAACTGAA [XGTACX_site8426] | 7.09
TTTATTTTTTACCAAGTGCAATATATTATAATAATA | 7.77
ACCTTATTTATTATTGCATGTGACCATCAGATGGTA [TGCATGCA_site288] | 7.6
TATTTATAAGTTTACGCATGCATATAATTATTAATA [TGCATGCA_site311] | 6.79
TTTTTTTTTTTTTTTGTGCACAATTATTTCAATTTT [GTGCAC_site9884] | 8.88
ATATTTGCATGTGGTAGTACATAACATTCTTTTACA [XGTACX_site8194] | 7.37
CTTCAATTAAAATTCACACATATAAATTAAAATATT [CACACA_site6129] | 6.85
ACATATTATATATGTGTGCACATATATATATATTTA [GTGCAC_site9591] | 8.7
ATATATAATTAATTTTGTACACATAAAAAAAAAAAT [XGTACX_site6647] | 7.25
AGAGAGAAAGCTATAACATGCAACAATTTTTTGAAA [TGCATGCA_site514] | 6.57
TTTATATATATAATATGTACACATAATAATAATACA [XGTACX_site4862] | 7.07
AAATGACATTTCAAAAGTACATATTTAATTAATTAA [XGTACX_site2919] | 7.01
TTTATTTAAAAAGTTTGTACATATATATTATTTTGA [XGTACX_site6040] | 6.89
AAAAAATATTAGACTTATAAAGCATAAAGGATATTA [GTGCAC_negctrl_site588] | 6.67
AATTTATTATTTTATTGTACGTATTTTTTTTTTTAT [XGTACX_site2298] | 7.19
CATATATAAATATATACACACATACATACATACATA [CACACA_site5988] | 7.29
ATATTATAGTTATGAACATGCAAACATTACGAAATA [TGCATGCA_site54] | 7.06
ATAAAAATAAAAAGTGTGCACACAAAAATATATATA [GTGCAC_site9931] | 8.78
AAAAAGAACAGAAACACACAAATAAAATAAAATTGT [CACACA_site6921] | 7.14
AAATGTTAATAAAGGTGTACACAAAATAAAAAAAAT [XGTACX_site463] | 7.41
TTAATTGACATAAAAAGTACTCATATAGATATGCAC [XGTACX_site6391] | 8.9

Sequence | gcPBM binding intensity (ln)
TAATTTTATTTTATATGTACGCAATACAAATATATA [XGTACX_site8461] | 7.2
CACCCCCACAGACACACACACACACCCATATATATA [CACACA_site364] | 7.86
AAGATTCATTGGTTCTGTACAAAATAAACACTATAA [XGTACX_site834] | 7.09
TTACCAAAAAAATGTAGTACAATATAATATTATTTA [XGTACX_site5750] | 7.44
AATATATATATTTAAGTGCATAATATTGTAATATTA | 7.88
ATATATTATGAAGACTGTACATTTACATGAAAAAAA [XGTACX_site7203] | 6.93
TTCACCAGTTGGTAAACATGCAATTTTCCATACAAG [TGCATGCA_site267] | 6.75
ATATAAATACATAAATGTACTTACCATTTAAATATG [XGTACX_site5254] | 7.12
AAAAAAAACGGACACACACACATACCCATACATACA [CACACA_site5574] | 7.22
ATTCTTTTAAAATAGGTGCTAAAAATAATATGTTAC | 8.29
AAAGAAAGAAGAAATTGTACATAATAAATAAGTAAA [XGTACX_site3311] | 6.68
ATATAAACAATATTTTGTACATAATTTTATGAGCAT [XGTACX_site6933] | 6.96
GCATATGTTTATTGCACACACCAAAAAGAAAACATA [CACACA_site4384] | 7.37
ATTATTTGTTTAATGAGTACGAAGACAAATTTTACC [XGTACX_site5223] | 7.4
AAAGGAAAAAAAAGCACACACAATATTACTTGAAAT [CACACA_site2588] | 6.64
TATATACACAGACACACACACACATACACGCACATA [CACACA_site6909] | 7.2
GTACTATACAAAGATGATAATCAATATATATATATA [XGTACX_negctrl_site264] | 9.51
TACATTTATATATATACACACACACTAATAAAAAAA [CACACA_site8845] | 7.23
TAAATACAGATATATACACACATATATATATTTTAT [CACACA_site5970] | 6.99
ATATGTATATATAAGGTGCAGAAAGGTGGGCAAAAG | 10
TCATATATTTTAATATGTACACATTTTTTTGGTATA [XGTACX_site8695] | 6.81
TACAGACTAAAATACACACACACACGCACATATATA [CACACA_site7875] | 7.19
TTTTTCTTTATTAGCACACATAATATTATATATGTG [CACACA_site2629] | 7.11

Sequence | gcPBM binding intensity (ln)
CTTTTGTCATTCTTTTGTACACAGTTTGAAATATGT [XGTACX_site1457] | 7.47
AAATAGAGAAATACAAGTACATATCAAACCAATATA [XGTACX_site1192] | 6.76
ATAATAAATAAATAATGTACATATGAAAGAATAAAT [XGTACX_site8355] | 7.34
ATAAAAAAGAAACAAACACACATACATACAAACAAA [CACACA_site4256] | 7.04
TATATATATATATATACACACTATATAATTCAAACA [CACACA_site4712] | 9.55
ATGAATAAATTAAAAATGCACACTTTGATGGGTACA [CACACA_site2157] | 7.46
AAATTGGGGCTTGTTACACACTTAGTGGGAGTTCTA [CACACA_site4485] | 6.9
AAACTTGTAAGAAACACACACACACCCATATATATA [CACACA_site797] | 7.52
TTACGATTATACAAAAGTACATGTATTACACAATAT [XGTACX_site5138] | 7.1
TATACCAGTTTTAAAAGTACTTGTGCATAAAAAATA [XGTACX_site4794] | 7.78
TAATAATAAAAATAAACACACATATATATGTATATA [CACACA_site2853] | 7.03
CACTATATAAGAACCTGTACTCAATTTTGCAATATA [XGTACX_site7238] | 6.96
ATATTTATTTATTTATGTACGCACACAGTTGATATT [XGTACX_site5808] | 7.53
AAATTATATTCAAGTGCATGTAACTTATTATTATAT [TGCATGCA_site526] | 7.62
TATATTTTCCTGCAAACACACATATAAATGTGTAGA [CACACA_site533] | 7.1
GTAAAAATAAAAACTGGTACACAAGTTGTTATAAAA [XGTACX_site502] | 7.02
AACATGCTCAACTTTTTTTTTTTTTTTTTTTTTTTT [CACACA_negctrl_site1617] | 8.59
AAAATAAAATAAAAGTGTACGTTTTAAGAACATTGA [XGTACX_site2382] | 6.81
CTTTTTTGTTAAAGTGTGCGCAATAGTTATAGACTT [GTGCAC_site9670] | 7.69
TATAATCAATATGTAACACACAAAAGTTATATACTT [CACACA_site7368] | 6.85
AATCTTAAAAATATATGTACTAAAAAAAAAAAAAAT [XGTACX_site6195] | 7.1
TATAATAATTATACATGTACACATTATTTGGATAAA [XGTACX_site5552] | 6.97
TTTTTATATTTAATGTGTCCTCACTTAAAAGGATGA [XGTACX_site2744] | 6.99

Sequence | gcPBM binding intensity (ln)
ATTCTCCAAGTTTGATGTACACATATGACGACGGCG [XGTACX_site4912] | 7.39
AATATATTTTTTGGTTGTACAGAGATCTTTGTAGAA [XGTACX_site1707] | 7.1
AAAAATTATAGAAAAGTGCAATACATGTTACACCAT | 7.64
TACAATAAGGATAAGTGTACATATGTGCATACATAT [XGTACX_site7188] | 7.11
CATATAGCATAATCATGTACACATACAACAAATAGG [XGTACX_site1589] | 7.21
CAACTAATATTAAAACGTACATAAATATTTAACAGA [XGTACX_site625] | 6.98
ATCACATATATATATAATATATATATGTATATATTT [GTGCAC_negctrl_site249] | 6.96
ATATATATATATATATGTACATATATTTTTATTTAT [XGTACX_site3508] | 9.31
AAAAAAAATATATATGCACACACAAAAAAACAAATT [CACACA_site8349] | 8.04
TATACCTTTTTATTCACACATATATGTCATATGTCA [CACACA_site5423] | 7.15
TTAATTACATGTAATTGTACTTAATTATAAGACATT [XGTACX_site464] | 6.93
TATTACTTATAAATTACACACAAATGATTGAACATT [CACACA_site2259] | 6.83
TTAAAATAAAGAAAATGTACATAAATAAAAATAAAG [XGTACX_site2280] | 7.78
TTTTACCTAAATATCACACATATTTAAATATATATA [CACACA_site5597] | 7.2
ATTATACCACCCGATATACACACTTGTAGACATCTT [CACACA_site7944] | 6.98
AAAAAAAAATACATATGTACTTATGTATAATGTTGT [XGTACX_site8104] | 7.14
TTTTTTTAATTAGTTTGTACATATTGTTATAATATA [XGTACX_site6294] | 6.85
CATGTTATGATTCCATGTACTTATAGCATTAAAAAA [XGTACX_site8939] | 6.98
ATAAAAAGGAGACACACACACACACGCATATTTATA [CACACA_site6551] | 7.08
TATATTAAACCATGTAGTACCTTGAATAAATATTAT [XGTACX_site8254] | 7
AACATATATATATATACATGCATATGAACAACGAAT [TGCATGCA_site93] | 7.35

— the supplement of paper PMC11417369
